The record followed here is paper PMC12040169 (PLOS Biology, 2025).

This is one part of the list.

This assay has as its system T1, C. trachomatis L2/434/Bu expressing GFP (CTL2-GFP).
T1 construct: L2/434/Bu GFP intracellular growth in HeLa cells
Further details: species or system HeLa; C. trachomatis total inclusion area by high-content imaging, normalised to DMSO. As to conditions: total inclusion area; 28.5 h, 10 µM; inhibitor. The procedure, abridged: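 Host cell viability was gauged from Hoechst-stained nuclei counts, while chlamydial growth was taken from total inclusion area and inclusion number per well. Cells were fixed and imaged by high-content microscopy once bulk GFP and resorufin fluorescence had been measured.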
For `CC(Oc1ccc(Cl)cc1)C(=O)Nc1ncccn1` (centres unmarked) [CBK288206], the “% of control remaining” value amounted to 87.1478.
With `O=C(CC1Nc2ccccc2NC1=O)Nc1cccc(C(=O)O)c1` (centres unmarked) [CBK263155], the “% of control remaining” value is reported as 102.051.
The value for `O=C(O)C1CCCN(C(=O)NCCOc2ccccc2)C1` (centres unmarked) [CBK161366] was 83.2659; that for `COc1cc2c(cc1NC(=O)C/C(C)=N/NC(=O)c1ccoc1C)oc1ccccc12` [CBK262953] was 87.1556; that for `NS(=O)(=O)c1ccc(CCNC(=O)c2ccc3c(c2)OCCO3)cc1` [CBK268128] was 74.1042.
The value for `Cc1nc2c(c(=O)c3ccccc3n2C)c(=O)n1Cc1ccco1` [CBK287776] was 96.133; that for `COC(=O)c1sc2ncccc2c1NS(=O)(=O)c1ccc(C(F)(F)F)cc1[N+](=O)[O-]` [CBK049969] was 87.5676.
The value for `NC(=O)COc1ccc(CNC(=O)CN2CCc3ccccc32)cc1` [CBK306330] was 77.6514.
As for `O=C(Cc1ccccc1F)NCCn1nc2c(cc1=O)CCCCC2` [CBK284519], the “% of control remaining” value was 40.5641.
Take `Clc1ccc(CN2CCC(Oc3cncc(OCc4cccnc4)n3)C2)cc1` (centres unmarked) [CBK084451]: the “% of control remaining” value was 15.5359.
The value for `O=C(NCC(O)COc1ccccc1)c1cnn2c(-c3ccccc3)ccnc12` (centres unmarked) [CBK298320] was 76.4942; that for `COc1cccc(CNc2ccc(C3c4ccsc4CCN3C(C)=O)cc2)c1` (centres unmarked) [CBK286443] was 106.352.
`CCn1cc(CN2CCCCCC2c2cc(C)on2)c(C)n1` (centres unmarked) [CBK282140]: the “% of control remaining” value came to 96.8411.
As to `O=C(c1ccc(S(=O)(=O)c2ccc(F)cc2)c([N+](=O)[O-])c1)N1CCCCCC1` [CBK294453], the “% of control remaining” value is 63.918.
The value for `CC(C(=O)NCCC1=CCCCC1)N1CCOC(Cn2cccn2)C1` (centres unmarked) [CBK305319] was 33.6144.
For the compound `CCCn1c(SC(C)C(=O)N2CCOCC2)nc2ccc(Br)cc2c1=O` (centres unmarked) [CBK305020], the “% of control remaining” value is 96.3566.
The value for `COCc1cc2n[nH]c(=O)n2c(-c2ccccc2)n1` [CBK288507] was 87.8237; that for `O=C(Nc1ccncc1)c1snnc1-c1ccccc1` [CBK287982] was 109.138; that for `Cn1c([C@H]2CCN(C(=O)c3cnccn3)C2)nc2ccccc21` [CBK289416] was 92.2792.
The value for `CCNS(=O)(=O)c1ccc(Cn2nc(NC(=O)C3COc4ccccc4O3)c3ccccc32)cc1` (centres unmarked) [CBK061613] was 79.9522; that for `CCC(C)(Sc1nc(C)ccc1C#N)C(=O)O` (centres unmarked) [CBK287098] was 99.8976.
The value for `CCN(CC(=O)NC(C)(C)C)Cc1nc(-c2cccc(Br)c2)no1` [CBK304230] was 34.4913.
Regarding `CN(CC(=O)O)C(=O)OCc1ccccc1` [CBK012752], the “% of control remaining” value was found to be 95.649.
The value for `O=C(Nc1sc2c(c1C(=O)NCc1ccco1)CCCC2)c1sc2ccccc2c1Cl` [CBK265086] was 108.59; that for `COc1cc(-c2cnc(N)c(NCC(C)(C)CO)n2)cc(OC)c1OC` [CBK063523] was 95.0569.
The value for `CCCCC(c1cccnc1)N(C)C(=O)CCc1ccnn1C` (centres unmarked) [CBK306664] was 98.5774; that for `COc1cc(C(=O)Oc2cccc(Nc3ncnc4ccccc34)c2)cc(OC)c1OC` [CBK264908] was 100.986.
The value for `C[C@H](Nc1cncc(-c2cccs2)n1)c1ccccc1` [CBK065719] was 97.0873.
Take `CCc1c(C)nc(C)nc1N1CCCn2nc(C(O)C3CC3)cc2C1` (centres unmarked) [CBK306778]: the “% of control remaining” value was 56.9113.
The value for `COc1cnc(-c2cnn(C)c2)c(NC(=O)C2CC2)n1` [CBK145328] was 95.2382; that for `Cc1cc(CS(=O)(=O)N2CCOCC2c2cccc(F)c2)no1` (centres unmarked) [CBK304093] was 10.1767.
The value for `O=C(Nc1cc(Cl)cc(Cl)c1)c1ccc([N+](=O)[O-])s1` [CBK066840] was 71.2205.
The value for `COc1ccc2c(c1)C1(CC(=O)N(CC(=O)N(C)OC)C1=O)C(=O)N2CCCCOc1ccccc1` (centres unmarked) [CBK076032] was 106.589.
Take `O=C(Nc1nnc(C2=COCCO2)o1)c1cc(Cl)cc(Cl)c1` [CBK287418]: the “% of control remaining” value is reported as 111.209.
For the compound `COc1ccc(-c2c(C)nc(N)nc2-c2ccc(OC)cc2O)cc1` [CBK288186], the “% of control remaining” value was 59.4358.
On to `CSc1ncc(Cl)c(C(=O)Nc2nnc(SC/C=C/c3ccccc3)s2)n1` [CBK268691], for which the “% of control remaining” value turned out to be 133.366.
The value for `Cc1noc(C)c1C(=O)N1C2CCC1CC(c1ccc(F)cc1)C2` (centres unmarked) [CBK283738] was 81.9266.
Turning to `O=C(CCc1cccnc1)NC1CCCC1` [CBK200239], the “% of control remaining” value was 93.3108.
For the compound `COc1cccc(C2C(C(=O)c3ccc(Br)cc3)=C(O)C(=O)N2CCCN(C)C)c1` (centres unmarked) [CBK264921], the “% of control remaining” value is reported as 105.466.
The value for `CC(C)c1nnc(C2(c3ccc(Br)cc3)CCOCC2)o1` [CBK306230] was 137.393.
For `COc1ccc(C(C)C)cc1-c1cnc2[nH]c(=O)n(C3CC3)c2n1` [CBK064915], the “% of control remaining” value came out at 107.29.
